Reference: US12209142B2, “SARS-CoV-2 epitope-targeted peptide immunostimulants” (Institute for Systems Biology, priority 2020, dated 2025)

Test system: MrkA-expressing K. pneumoniae cells
Assay: Whole-cell ELISA of biotinylated PCC binding
Settings: biotinylated PCC at 5 μM

## cy(LLFFA): control compound differing from cy(LLFFF) by a single phenyl moiety ([Lys(N3)]LLFFA[Pra]; triazole 1-7)
  whole-cell ELISA signal, K. pneumoniae BAA 1705 and BAA 2146: low signals that were comparable to secondary antibody controls

Bridges are numbered along the chain shown (N, C = ends). Where no end group is shown, it is not given here. [ ]: non-standard residue; d: D form. Lys(N3) = [N-]=[N+]=NCCCC[C@H](N)C(=O)O; Pra = C#CC[C@H](N)C(=O)O
